In PubChem BioAssay AID2060353 (Molecular Pharmacology Branch, DTP, NCI, 2025):
Some entries of the source have several records that differ or are many. They are shown here; other results are not. An entry can have further records. Values given together are repeated measurements (runs, samples, wells, individuals or studies).

System: 521955-158-R2-J5-PDC spheroids with stroma, growth inhibition
Assay: Anticancer human tumor 521955-158-R2-J5-PDC patient-derived pancreatic carcinoma cell line growth inhibition [TAK]
Settings: compound alone 9.49 µM; stronger effect = lower value
Description: Combinatorial screen of targeted agents with TAK-243 and ipatasertib in multi-cell type tumor spheroids
A high-throughput screen of multi-cell type tumor spheroids was designed to identify active combinations of targeted small molecules and TAK-243 or ipatasertib. Complex spheroids include a stromal component modeled by human endothelial cells (HUVEC) and fibroblasts modeled by human mesenchymal stem cells (MSCs). The concentration ranges selected for each drug and investigational agent were based upon clinically achievable concentrations if the clinical Cmax of the agent was known.
Compounds. […] If the clinical Cmax for an agent had not been determined, the highest concentration tested was 10 microM.
NCI60 Cell Culture. […] The optimal seeding densities for each of the cell lines at each time point assessed were determined prior to performing the concentration response studies. […]
For the pre-screen, cell seeding densities were determined from a titration spanning the range from 5,000 to 313 cells per well. […]
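Also: spheroids exposed to drugs for seven days before readout; 100% = DMSO vehicle control viability.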

SMILES: CC(C)NCC(C(=O)N1CCN(c2ncnc3c2C(C)CC3O)CC1)c1ccc(Cl)cc1 (stereo unspecified)
- viability, T/C: 86.3, 93.2, 96.1, 99.9, 124, 99.3, 75.4, 82.8, 101, 96.8%
